# Measurements as given in PubChem BioAssay (Tox21).
# The inconclusive results got no clear call from the source; some entries with a clear call stand among them for comparison. Where a call stands in place of a potency, no number is given. For part of these data: Where the call is inconclusive, the potency comes from a doubtful curve fit. The source made the active and inactive calls. Unless noted, the call rests on the fitted dose curve; in most records, active means well fitted curve in the direction sought with a large enough effect in the repeat runs; inconclusive means weak or mixed curves; inactive means no such curve, though single readings can be large; an effect the other way counts as inactive or inconclusive.
# Legend:
# [1] = target: Peroxisome proliferator-activated receptor gamma (Homo sapiens) (UniProt P37231); assay: qHTS assay to identify small molecule agonists of the peroxisome proliferator-activated receptor gamma (PPARg) signaling pathway (AID 743094; active means well fitted activation curve with a large enough effect in the signal ratio in the repeat runs, not every such curve was filed as active; inconclusive means weak or mixed curves, or effect the other way; inactive means no such curve, though single readings can be large or run the other way; the % refers to the signal ratio); conditions: HEK293H PPARg-UAS-bla, beta-lactamase FRET ratio, 17 h; activation: at 57 µM (top of the series) unless noted
# Sequence of UniProt P37231 (P37231 whole entry, looked up): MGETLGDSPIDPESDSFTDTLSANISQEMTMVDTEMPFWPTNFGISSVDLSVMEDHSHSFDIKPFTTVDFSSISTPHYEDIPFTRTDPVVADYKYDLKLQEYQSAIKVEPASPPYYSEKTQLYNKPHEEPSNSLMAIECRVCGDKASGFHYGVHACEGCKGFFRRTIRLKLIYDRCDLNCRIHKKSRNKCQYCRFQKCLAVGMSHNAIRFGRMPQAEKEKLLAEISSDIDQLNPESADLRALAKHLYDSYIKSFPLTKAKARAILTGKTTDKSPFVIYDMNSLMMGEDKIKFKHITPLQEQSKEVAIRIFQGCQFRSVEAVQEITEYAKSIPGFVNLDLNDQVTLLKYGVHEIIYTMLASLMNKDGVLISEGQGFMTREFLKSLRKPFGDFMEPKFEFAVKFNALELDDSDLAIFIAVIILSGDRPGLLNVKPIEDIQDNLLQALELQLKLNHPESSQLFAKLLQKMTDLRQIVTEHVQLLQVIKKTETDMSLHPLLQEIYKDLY
# Method in brief: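 HEK293H PPARg-bla cells, 5 h settle at 37C/5% CO2; compound (DMSO) 17 h, 37C; B/G FRET substrate 1 h RT; fluorescence intensity read-out. qHTS format.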
# [2] = target: Peroxisome proliferator-activated receptor delta (Homo sapiens) (UniProt Q03181); assay: qHTS assay to identify small molecule antagonists of the peroxisome proliferator-activated receptor delta (PPARd) signaling pathway (AID 743215; active means well fitted inhibition curve with a large enough effect in the signal ratio in the repeat runs, not every such curve was filed as active; inconclusive means weak or mixed curves, or effect the other way; inactive means no such curve, though single readings can be large or run the other way; the % refers to the signal ratio;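 further: cells stimulated with agonist L165041 at 300 nM final during compound exposure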; further: potency means the concentration at half of the fitted maximal effect); conditions: HEK293H PPARd-UAS-bla, beta-lactamase FRET ratio, antagonist, 17 h; ratio activity, negative = inhibition: at 62 µM (top of the series) unless noted
# Sequence of UniProt Q03181 (Q03181 whole entry, looked up): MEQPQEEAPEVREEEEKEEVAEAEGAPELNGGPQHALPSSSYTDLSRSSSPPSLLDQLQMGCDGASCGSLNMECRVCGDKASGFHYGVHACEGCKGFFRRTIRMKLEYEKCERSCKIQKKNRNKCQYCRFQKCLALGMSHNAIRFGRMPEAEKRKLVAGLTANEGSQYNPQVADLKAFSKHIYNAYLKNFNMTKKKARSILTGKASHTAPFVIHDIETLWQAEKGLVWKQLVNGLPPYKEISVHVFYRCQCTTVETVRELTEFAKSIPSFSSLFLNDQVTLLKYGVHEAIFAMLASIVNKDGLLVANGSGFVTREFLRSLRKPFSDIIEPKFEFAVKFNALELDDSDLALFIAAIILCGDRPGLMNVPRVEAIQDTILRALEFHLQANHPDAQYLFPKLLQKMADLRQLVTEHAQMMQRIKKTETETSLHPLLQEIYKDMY
# Method in brief: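 HEK293H GeneBLAzer PPARd UAS-bla reporter cells; cpd + L165041 300 nM final, 17 h 37 C; LiveBLAzer B/G FRET substrate 2 h RT; fluorescence intensity read-out. Antagonist mode.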
# [3] = qHTS assay for identifying genotoxic compounds that show differential cytotoxicity against isogenic chicken DT40 cell lines with known DNA damage response pathways - Rad54/Ku70 mutant cell line (AID 743015); conditions: DT40 Rad54/Ku70 mutant viability, CellTiter-Glo, 40 h; activity change, negative = cytotoxicity: at 66.8 µM (top of the series) unless noted; further: nearly all actives have a fitted effect of over 60% in size; further: potency means the concentration at half of the fitted maximal effect
# [4] = qHTS assay to identify small molecule antagonists of the estrogen receptor alpha (ER-alpha) signaling pathway - cell viability counter screen (AID 743074; calls by dose curve;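 further: HEK293 cells carrying ER-alpha-UAS-bla reporter stimulated with 17beta-estradiol; nearly all actives have a fitted effect of over 45% in size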; further: potency means the concentration at half of the fitted maximal effect)
# [5] = A CellTox Green Cytotoxicity Assay to monitor cytotoxicity in HEK293 cells - 40 hour (AID 1224871); further: nearly all actives have a fitted effect of over 45% in size; further: potency means the concentration at half of the fitted maximal effect
# Method in brief: (§1)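 Read-out: fluorescence of a cell-impermeant cyanine dye staining DNA of dead cells, proportional to cytotoxicity. HEK293, 600 cells/well with reagent, compound (23 nL DMSO) added after 5 h; reads at 0, 8, 16, 24, 32, 40 h.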
# [6] = A CellTox Green Cytotoxicity Assay to monitor cytotoxicity in HEK293 cells - 8 hour (AID 1224884); further: nearly all actives have a fitted effect of over 35% in size; further: potency means the concentration at half of the fitted maximal effect
# Method in brief: as §1
# [7] = A CellTox Green Cytotoxicity Assay to monitor cytotoxicity in HEK293 cells - 16 hour (AID 1224888); further: nearly all actives have a fitted effect of over 35% in size; further: potency means the concentration at half of the fitted maximal effect
# Method in brief: as §1
# [8] = qHTS assay to identify small molecule agonists of the estrogen receptor beta (ER-beta) signaling pathway - cell viability counter screen (AID 1259380); further: nearly all actives have a fitted effect of over 30% in size; further: potency means the concentration at half of the fitted maximal effect
# Method in brief: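 Luminescence read-out (CellTiter-Glo, 30 min, room temp) taken in the same wells as the beta-lactamase reporter assay; ER-beta-UAS-bla HEK293T cells exposed to DMSO-dissolved compounds for 16 hr at 37C in 2% charcoal-stripped FBS medium.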
# [9] = target: Nuclear receptor subfamily 1 group I member 2 (Homo sapiens) (UniProt O75469); assay: Human pregnane X receptor (PXR) small molecule agonists, qHTS assay (AID 1346982); further: nearly all actives have a fitted effect of over 35% in size; further: potency means the concentration at half of the fitted maximal effect
# Sequence of UniProt O75469 (O75469 whole entry, looked up): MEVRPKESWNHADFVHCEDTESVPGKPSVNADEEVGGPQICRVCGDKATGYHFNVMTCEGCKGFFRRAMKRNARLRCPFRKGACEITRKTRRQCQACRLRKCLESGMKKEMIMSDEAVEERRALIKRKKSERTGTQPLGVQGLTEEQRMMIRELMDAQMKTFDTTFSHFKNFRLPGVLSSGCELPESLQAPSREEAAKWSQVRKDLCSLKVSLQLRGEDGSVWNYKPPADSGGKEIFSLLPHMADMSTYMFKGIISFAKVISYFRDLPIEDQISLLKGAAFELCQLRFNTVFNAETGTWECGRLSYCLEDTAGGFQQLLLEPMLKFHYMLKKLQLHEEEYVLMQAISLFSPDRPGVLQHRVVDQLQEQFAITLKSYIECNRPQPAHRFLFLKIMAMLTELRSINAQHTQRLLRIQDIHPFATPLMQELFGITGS
# Method in brief: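 HepG2 PXR-Luc reporter line, 5% charcoal-stripped FBS; 5 hr pre-incubation, compound (DMSO) 24 hr at 37 C/5% CO2; ONE-Glo 30 min RT; luminescence read-out.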
# [10] = qHTS assay to identify small molecule agonists of H2AX (AID 1224845; active means well fitted activation curve with a large enough effect in the signal ratio in the repeat runs, not every such curve was filed as active; inconclusive means weak or mixed curves; the % refers to the signal ratio; further: potency means the concentration at half of the fitted maximal effect); conditions: CHO-K1 phospho-H2AX Ser139 HTRF, 3 h; activation (H2AX phosphorylation): at 154 µM (top of the series) unless noted
# Method in brief: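 Wild-type CHO-K1 cells, plated overnight, exposed 3hr at 37C to 15 concentrations (0.76% DMSO final). Lysed, then HTRF anti-pH2AX (S139) cryptate and anti-H2AX-d2 antibodies, 24 hr room temperature; 665/620 nm emission read.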
# [11] = qHTS RealTime-Glo MT Cell Viability Assay in HEK293 cells - 24 hour (AID 1224886); further: top concentration of the series differs between compounds; nearly all actives have a fitted effect of over 50% in size
# Method in brief: (§2)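 Cells + reagent dispensed (600 cells/well, HEK293) → 5 h at 37 C/5% CO2 → 23 nL compound in DMSO pinned → 40 h at 37 C → luminescence read at 0, 8, 16, 24, 32, 40 h.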
# [12] = Caspase-3/7 induction in CHO-K1 cells by small molecules, qHTS cell viability counter screen (AID 1346979); further: nearly all actives have a fitted effect of over 35% in size
# Method in brief: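 Cells (CHO-K1, wild type) are plated at 1,500 per well and incubated 5hr. Test compounds in DMSO are then pinned in, followed by 16hr at 37C and 5% CO2. Viability is read by CellTiter-Fluor fluorescence after 1hr.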
# [13] = A CellTox Green Cytotoxicity Assay to monitor cytotoxicity in HepG2 cells - 24 hour (AID 1224878); further: nearly all actives have a fitted effect of over 45% in size; further: potency means the concentration at half of the fitted maximal effect
# Method in brief: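 HepG2, 600 cells/well premixed w/ CellTox Green; 5 h settle, 37 C/5% CO2; pintool cpd add (DMSO); 37 C, 40 h; fluorescence read at 0, 8, 16, 24, 32, 40 h.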
# [14] = qHTS assay to identify small molecule agonists of H2AX - cell viability counter screen (AID 1224847; calls by dose curve; further: nearly all actives have a fitted effect of over 30% in size; further: potency means the concentration at half of the fitted maximal effect; on activity change, negative = cytotoxicity: top concentration of the series differs between compounds)
# Method in brief: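 Cells plated first: CHO-K1, 1000 per well in 10% FBS medium, incubated overnight at 37C. Then 15-point compound titration added (final DMSO 0.76%) for 3 hr. Finally CellTiter-Glo added and luminescence read.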
# [15] = target: Estrogen receptor beta (Homo sapiens) (UniProt Q92731); assay: qHTS assay to identify small molecule agonists of the estrogen receptor beta (ER-beta) signaling pathway (AID 1259377; active means well fitted activation curve with a large enough effect in the signal ratio in the repeat runs, not every such curve was filed as active; inconclusive means weak or mixed curves, or effect the other way; the % refers to the signal ratio); conditions: ER-beta-UAS-bla HEK293T, beta-lactamase FRET ratio, 16 h; activation: at 92.4 µM (top of the series) unless noted
# Sequence of UniProt Q92731 (Q92731 whole entry, looked up): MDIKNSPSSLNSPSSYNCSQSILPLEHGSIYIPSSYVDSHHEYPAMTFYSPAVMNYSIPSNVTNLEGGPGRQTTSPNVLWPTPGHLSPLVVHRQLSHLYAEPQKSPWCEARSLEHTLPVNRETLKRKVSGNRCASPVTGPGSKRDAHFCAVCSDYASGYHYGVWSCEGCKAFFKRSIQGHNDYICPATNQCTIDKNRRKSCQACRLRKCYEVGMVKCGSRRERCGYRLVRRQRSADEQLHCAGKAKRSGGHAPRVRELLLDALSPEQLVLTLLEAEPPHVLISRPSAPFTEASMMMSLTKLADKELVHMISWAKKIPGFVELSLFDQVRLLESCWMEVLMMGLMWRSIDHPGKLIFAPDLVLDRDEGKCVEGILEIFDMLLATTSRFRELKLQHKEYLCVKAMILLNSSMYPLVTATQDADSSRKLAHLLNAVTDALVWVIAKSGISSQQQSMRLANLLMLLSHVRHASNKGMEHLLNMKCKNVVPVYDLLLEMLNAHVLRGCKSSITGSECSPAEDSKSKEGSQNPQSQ
# Method in brief: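 HEK293T ER-beta-UAS-bla; 2% charcoal-stripped FBS; cells pre-incubated 6 hr, compound 16 hr, 37C/5% CO2; LiveBLAzer B/G FRET substrate 2 h RT; fluorescence intensity read.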
# [16] = target: Progesterone receptor (Homo sapiens) (UniProt P06401); assay: qHTS assay to identify small molecule agonists of the progesterone receptor (PR) signaling pathway (AID 1346784; calls by dose curve; further: nearly all actives have a fitted effect of over 30% in size; further: potency means the concentration at half of the fitted maximal effect); conditions: PR-UAS-bla HEK293T, beta-lactamase FRET ratio, 16 h; activation: at 92.4 µM (top of the series) unless noted
# Sequence of UniProt P06401 (P06401 whole entry, looked up): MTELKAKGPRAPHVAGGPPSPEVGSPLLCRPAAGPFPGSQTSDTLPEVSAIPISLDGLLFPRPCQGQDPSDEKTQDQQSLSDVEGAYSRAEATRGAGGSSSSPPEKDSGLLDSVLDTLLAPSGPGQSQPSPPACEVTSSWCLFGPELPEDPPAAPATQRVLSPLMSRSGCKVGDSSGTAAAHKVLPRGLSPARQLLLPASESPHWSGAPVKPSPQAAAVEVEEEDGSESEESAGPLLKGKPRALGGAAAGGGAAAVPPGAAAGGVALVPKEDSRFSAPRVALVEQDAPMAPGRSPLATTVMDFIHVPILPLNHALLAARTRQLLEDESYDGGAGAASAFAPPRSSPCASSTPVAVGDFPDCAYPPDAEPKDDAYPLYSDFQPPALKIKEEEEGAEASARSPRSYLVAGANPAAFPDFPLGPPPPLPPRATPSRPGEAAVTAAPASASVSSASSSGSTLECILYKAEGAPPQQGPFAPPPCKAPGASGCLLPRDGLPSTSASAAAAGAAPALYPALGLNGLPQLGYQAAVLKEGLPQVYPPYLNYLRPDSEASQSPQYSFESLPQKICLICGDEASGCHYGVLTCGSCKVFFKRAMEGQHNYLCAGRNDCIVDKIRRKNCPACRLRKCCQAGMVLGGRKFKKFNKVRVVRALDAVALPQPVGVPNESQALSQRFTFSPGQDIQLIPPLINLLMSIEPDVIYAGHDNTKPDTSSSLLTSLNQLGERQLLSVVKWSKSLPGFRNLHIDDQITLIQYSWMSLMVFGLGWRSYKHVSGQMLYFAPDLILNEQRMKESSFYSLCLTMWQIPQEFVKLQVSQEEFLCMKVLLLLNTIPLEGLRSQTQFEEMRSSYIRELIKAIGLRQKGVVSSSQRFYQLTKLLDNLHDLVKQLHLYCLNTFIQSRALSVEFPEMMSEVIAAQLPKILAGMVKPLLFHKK
# Method in brief: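 Beta-lactamase reporter read-out: after 16 hr compound treatment at 37C and a further 2 hr at room temperature with LiveBLAzer B/G FRET substrate, fluorescence was measured in PR-UAS-bla HEK 293T cells grown in 2% charcoal-stripped serum.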
# [17] = target: Bile acid receptor (Homo sapiens) (UniProt Q96RI1); assay: qHTS assay to identify small molecule antagonists of the farnesoid-X-receptor (FXR) signaling pathway (AID 743217; active means well fitted inhibition curve with a large enough effect in the signal ratio in the repeat runs, not every such curve was filed as active; inconclusive means weak or mixed curves, or effect the other way; inactive means no such curve, though single readings can be large or run the other way; the % refers to the signal ratio); conditions: HEK293T FXR-UAS-bla, beta-lactamase ratio, CDCA-stimulated, 16 h; activity change, negative = inhibition: at 62.6 µM (top of the series) unless noted
# Sequence of UniProt Q96RI1 (Q96RI1 whole entry, looked up): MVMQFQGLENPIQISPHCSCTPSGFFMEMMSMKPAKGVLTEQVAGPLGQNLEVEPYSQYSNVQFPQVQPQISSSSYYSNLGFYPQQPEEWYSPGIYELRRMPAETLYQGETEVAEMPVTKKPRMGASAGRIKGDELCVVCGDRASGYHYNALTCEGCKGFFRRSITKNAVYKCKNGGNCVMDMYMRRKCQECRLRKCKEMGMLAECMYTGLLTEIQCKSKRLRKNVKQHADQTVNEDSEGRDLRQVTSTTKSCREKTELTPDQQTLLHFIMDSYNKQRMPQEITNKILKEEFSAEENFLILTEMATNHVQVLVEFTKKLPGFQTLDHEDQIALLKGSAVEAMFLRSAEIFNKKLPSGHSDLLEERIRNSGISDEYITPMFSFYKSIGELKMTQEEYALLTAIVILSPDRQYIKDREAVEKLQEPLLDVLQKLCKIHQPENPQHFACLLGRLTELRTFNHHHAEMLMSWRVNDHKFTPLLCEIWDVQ
# Method in brief: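 Read-out: beta-lactamase FRET fluorescence (LiveBLAzer B/G substrate, 2 h, room temperature) in GeneBLAzer FXR-UAS-bla HEK 293T cells. Compounds were co-dosed with 50 uM chenodeoxycholic acid (final) and incubated 16 h at 37 °C.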
# [18] = target: Estrogen receptor (Homo sapiens) (UniProt P03372); assay: qHTS assay to identify small molecule agonists of the estrogen receptor alpha (ER-alpha) signaling pathway using the BG1 cell line (AID 743079); conditions: BG1Luc4E2 cells, ERE-luciferase agonist, 22 h; activation: at 70.3 µM (top of the series) unless noted; further: nearly all actives have a fitted effect of over 20% in size
# Sequence of UniProt P03372 (P03372 whole entry, looked up): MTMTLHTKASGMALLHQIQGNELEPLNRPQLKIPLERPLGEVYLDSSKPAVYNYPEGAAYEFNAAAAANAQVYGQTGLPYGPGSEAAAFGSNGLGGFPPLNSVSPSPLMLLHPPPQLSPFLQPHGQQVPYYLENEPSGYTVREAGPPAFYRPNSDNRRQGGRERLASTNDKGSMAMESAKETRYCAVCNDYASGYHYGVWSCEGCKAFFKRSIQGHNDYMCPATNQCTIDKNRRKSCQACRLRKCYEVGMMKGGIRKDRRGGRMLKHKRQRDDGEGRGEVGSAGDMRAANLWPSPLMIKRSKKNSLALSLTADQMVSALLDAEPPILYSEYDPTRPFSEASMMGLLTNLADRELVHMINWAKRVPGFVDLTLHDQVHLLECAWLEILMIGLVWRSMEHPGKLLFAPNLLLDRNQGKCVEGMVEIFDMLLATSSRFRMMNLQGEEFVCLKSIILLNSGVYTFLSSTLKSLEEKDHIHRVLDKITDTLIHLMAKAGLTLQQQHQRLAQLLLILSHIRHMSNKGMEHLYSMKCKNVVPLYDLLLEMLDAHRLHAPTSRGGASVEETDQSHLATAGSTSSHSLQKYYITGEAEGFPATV
# [19] = qHTS RealTime-Glo MT Cell Viability Assay in HEK293 cells - 32 hour (AID 1224868); further: top concentration of the series differs between compounds; nearly all actives have a fitted effect of over 50% in size
# Method in brief: as §2
# [20] = target: Vitamin D3 receptor (Homo sapiens) (UniProt P11473); assay: qHTS assay to identify small molecule agonists of the vitamin D receptor (VDR) signaling pathway (AID 743222; calls by dose curve); conditions: HEK293T VDR-UAS-bla, beta-lactamase FRET ratio, 16 h; activation: at 63.5 µM (top of the series) unless noted
# Sequence of UniProt P11473 (P11473 whole entry, looked up): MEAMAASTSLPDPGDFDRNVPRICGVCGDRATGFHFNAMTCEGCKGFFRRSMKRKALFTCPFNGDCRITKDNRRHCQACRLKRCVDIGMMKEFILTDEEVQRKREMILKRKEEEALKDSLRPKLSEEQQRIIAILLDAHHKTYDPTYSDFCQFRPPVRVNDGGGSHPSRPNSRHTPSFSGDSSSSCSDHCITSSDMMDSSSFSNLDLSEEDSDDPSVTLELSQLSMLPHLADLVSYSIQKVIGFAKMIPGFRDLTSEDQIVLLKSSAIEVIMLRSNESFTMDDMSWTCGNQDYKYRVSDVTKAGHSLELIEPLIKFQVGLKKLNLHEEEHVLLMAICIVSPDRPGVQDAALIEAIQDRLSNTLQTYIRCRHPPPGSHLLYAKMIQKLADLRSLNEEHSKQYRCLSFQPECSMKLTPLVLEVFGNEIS
# Method in brief: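 Beta-lactamase reporter readout (LiveBLAzer B/G FRET, 2 h RT) in VDR-bla cells after 16 h compound treatment at 37C, 5% CO2; cells pre-incubated 4 h before pin transfer of DMSO solutions.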
# Tags describe the fitted curve by direction and shape or compound fluorescence and quenching.
smiles,measurement,setting,value
CC1(c2ccccc2)OC(C(=O)O)=CC1=O (stereo not drawn),Potency,[1],inactive
same,"ratio activity, negative = inhibition",[2],inconclusive: -28.1%
CC(C)=CCC/C(C)=C/C=N/O,Potency,[3],"inconclusive: 68.6 µM [cytotoxic, single point]"
same,Potency,[4],inactive
same,Potency,[5],"inconclusive: 21.9 µM [activator, single point]"
same,Potency,[6],"inconclusive: 21.9 µM [activator, single point]"
same,Potency,[7],"inconclusive: 21.9 µM [activator, single point]"
same,Potency,[8],inactive
same,Potency,[9],active: 34.4 µM
Cc1cccc(Cl)c1,Potency,[10],inactive
same,Potency,[11],inactive
CC1CC(=O)CC(C)(C)C1 (stereo not drawn),Potency,[10],inactive
same,Potency,[8],"inconclusive: 0.545 µM [rising, partial curve]"
same,Potency,[12],inactive
Nc1cc(N)cc(C(=O)O)c1,Potency,[10],"inconclusive: 101 µM [falling, partial curve]"
same,Potency,[8],inactive
CC(O)C1CCCCC1 (stereo not drawn),Potency,[4],"inconclusive: 43.6 µM [rising, partial curve]"
same,Potency,[10],inactive
same,Potency,[13],inactive
CCC(=O)OC(C)c1ccccc1 (stereo not drawn),activation,[1],inconclusive: 2.98%
same,Potency,[14],"inconclusive: 1.79 µM [cytotoxic, single point]"
same,Potency,[7],"inconclusive: 43.6 µM [activator, partial curve, poor fit]"
same,Potency,[15],inactive
same,Potency,[16],inactive
CCCCCOC(=O)COc1cc(N2C(=O)C3=C(CCCC3)C2=O)c(F)cc1Cl,Potency,[3],"inconclusive: 68.6 µM [cytotoxic, single point]"
same,Potency,[1],inactive
same,Potency,[14],"inconclusive: 127 µM [rising, single point]"
same,Potency,[11],inactive
same,Potency,[8],"inconclusive: 27.3 µM [cytotoxic, full curve]"
same,Potency,[9],"inconclusive: 68.6 µM [activator, single point]"
CCO,Potency,[3],inactive
same,Potency,[4],inactive
same,Potency,[1],inactive
same,"ratio activity, negative = inhibition",[2],inconclusive: -13.4% [at 80.4 µM]
same,Potency,[17],inactive
same,Potency,[14],inactive
same,Potency,[5],inactive
same,Potency,[13],inactive
same,Potency,[8],inactive
CN1CCN(C(=O)C2CCCCC2)CC1,Potency,[18],inactive
same,Potency,[17],inactive
CC(C)CCCCCCOC(=O)c1ccc(C(=O)OCCCCCCC(C)C)c(C(=O)OCCCCCCC(C)C)c1,Potency,[3],inactive
same,Potency,[10],inactive
NC(=O)c1ncn([C@@H]2O[C@H](CO)[C@@H](O)[C@H]2O)c1O,Potency,[3],inactive
same,"activity change, negative = inhibition",[17],inconclusive: -18.4%
same,Potency,[5],"inconclusive: 16.9 µM [activator, partial curve]"
same,Potency,[13],"inconclusive: 19 µM [activator, partial curve, poor fit]"
same,Potency,[7],active: 19 µM
C=Cc1ccc(C(C)(C)C)cc1,"ratio activity, negative = inhibition",[2],inconclusive: 16%
same,Potency,[6],inactive
SC1CCCC1,activation,[18],inconclusive: 12.2% [phenotype inactive]
same,Potency,[10],inactive
same,Potency,[19],inactive
CCN(C=O)CC,activation,[20],inconclusive: 2.21% [at 81.1 µM]
same,Potency,[8],"inconclusive: 79 µM [cytotoxic, single point]"
same,activation,[16],inconclusive: 4.38%
CC(C)(C)C(=O)/C=C/c1ccc(Cl)cc1,Potency,[3],"inconclusive: 68.6 µM [cytotoxic, single point]"
same,activation (H2AX phosphorylation),[10],inconclusive: 8.76%
same,Potency,[5],"inconclusive: 49 µM [activator, single point]"
same,Potency,[15],inactive
same,Potency,[8],"inconclusive: 77 µM [cytotoxic, single point]"
O=c1[nH]c(=O)c2ccccc2o1,Potency,[10],inactive
same,Potency,[16],inactive
CCOC(=N)CC(=O)OCC,Potency,[8],"inconclusive: 27.3 µM [cytotoxic, partial curve, poor fit]"
same,Potency,[16],"inconclusive: 68.6 µM [rising, partial curve, poor fit]"
CO[Si](CCC1CCC2OC2C1)(OC)OC (stereo not drawn),Potency,[9],inactive
CCCCCC(=O)CC,Potency,[5],inactive
same,Potency,[7],inactive
same,Potency,[16],"inconclusive: 27.6 µM [rising, single point]"
CCCCCCCCCCCC(=O)OCC,Potency,[4],inactive
same,Potency,[2],"inconclusive: 21.9 µM [fluorescent, partial curve]"
same,Potency,[10],inactive
same,Potency,[8],inactive
CC(C)c1cc(C(C)C)cc(C(C)C)c1,Potency,[1],inactive
same,Potency,[10],inactive
same,Potency,[19],inactive
CO[Si](C)(OC)c1ccccc1,"ratio activity, negative = inhibition",[2],inconclusive: 7.72%
same,Potency,[14],"inconclusive: 2.01 µM [cytotoxic, single point]"
